The target in assay [1] is T1, FLAG-UPF1 LECY181-184VRVD (human) (UniProt Q92900).
T1 sequence: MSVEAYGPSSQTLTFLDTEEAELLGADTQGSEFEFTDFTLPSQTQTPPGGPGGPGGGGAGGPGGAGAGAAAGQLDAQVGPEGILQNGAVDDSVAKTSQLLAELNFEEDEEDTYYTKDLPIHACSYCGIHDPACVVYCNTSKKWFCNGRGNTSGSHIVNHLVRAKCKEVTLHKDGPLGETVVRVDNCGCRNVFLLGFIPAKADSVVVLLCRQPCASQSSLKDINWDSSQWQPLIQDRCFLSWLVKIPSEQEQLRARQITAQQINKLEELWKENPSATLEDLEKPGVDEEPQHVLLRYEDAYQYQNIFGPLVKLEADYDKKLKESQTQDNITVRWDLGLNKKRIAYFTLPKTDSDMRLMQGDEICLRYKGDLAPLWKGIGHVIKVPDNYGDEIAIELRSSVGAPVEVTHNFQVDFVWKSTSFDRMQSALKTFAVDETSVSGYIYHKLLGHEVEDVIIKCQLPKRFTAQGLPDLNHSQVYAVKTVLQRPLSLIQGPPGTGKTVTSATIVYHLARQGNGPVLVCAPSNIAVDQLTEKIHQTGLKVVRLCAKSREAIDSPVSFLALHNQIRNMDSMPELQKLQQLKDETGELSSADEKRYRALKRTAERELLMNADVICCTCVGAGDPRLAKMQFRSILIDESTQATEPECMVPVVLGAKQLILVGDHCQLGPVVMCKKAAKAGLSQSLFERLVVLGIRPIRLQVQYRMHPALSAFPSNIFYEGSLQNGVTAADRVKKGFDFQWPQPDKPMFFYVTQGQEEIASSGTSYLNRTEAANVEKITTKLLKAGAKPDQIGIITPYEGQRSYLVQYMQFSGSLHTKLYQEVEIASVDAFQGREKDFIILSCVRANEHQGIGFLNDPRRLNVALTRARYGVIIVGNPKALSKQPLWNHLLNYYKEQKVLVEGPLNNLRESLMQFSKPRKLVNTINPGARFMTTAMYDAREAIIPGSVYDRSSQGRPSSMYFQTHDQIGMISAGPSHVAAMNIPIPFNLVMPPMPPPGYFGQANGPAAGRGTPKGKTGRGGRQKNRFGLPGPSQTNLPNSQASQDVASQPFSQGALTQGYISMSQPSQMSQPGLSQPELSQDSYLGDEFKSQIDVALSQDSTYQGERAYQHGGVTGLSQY
Nature of the assay: co-IP; anti-FLAG IP from HEK293T cells cotransfected with FLAG-UPF1 (wild-type or mutants) and T7-DHX34 (wild-type or ATPase mutants); RNase A in Figure 3C; T7-DHX34 by western blot. In general terms: In western blotting, separated proteins are transferred to a membrane and probed.

Assay [2] deals with T2, FLAG-UPF1 VV204-205DI (human) (UniProt Q92900).
T2 sequence: T1 sequence with V181L, R182E, V183C, D184Y, V204D, V205I
Described as above.

Numbering of substitutions follows the chain as printed. These are yes or no findings as the source states them, for the method shown. Binding seen in cells or lysates may run through a third protein. Some results given as binding are weak or reduced against the parent protein; the word gives no strength. Sequences can lack the tags named with a protein.

B1: T7-DHX34 (wild-type) (protein, UniProt Q14147 1-1143)
chain: MPPPRTREGRDRRDHHRAPSEEEALEKWDWNCPETRRLLEDAFFREEDYIRQGSEECQKFWTFFERLQRFQNLKTSRKEEKDPGQPKHSIPALADLPRTYDPRYRINLSVLGPATRGSQGLGRHLPAERVAEFRRALLHYLDFGQKQAFGRLAKLQRERAALPIAQYGNRILQTLKEHQVVVVAGDTGCGKSTQVPQYLLAAGFSHVACTQPRRIACISLAKRVGFESLSQYGSQVGYQIRFESTRSAATKIVFLTVGLLLRQIQREPSLPQYEVLIVDEVHERHLHNDFLLGVLQRLLPTRPDLKVILMSATINISLFSSYFSNAPVVQVPGRLFPITVVYQPQEAEPTTSKSEKLDPRPFLRVLESIDHKYPPEERGDLLVFLSGMAEISAVLEAAQTYASHTQRWVVLPLHSALSVADQDKVFDVAPPGVRKCILSTNIAETSVTIDGIRFVVDSGKVKEMSYDPQAKLQRLQEFWISQASAEQRKGRAGRTGPGVCFRLYAESDYDAFAPYPVPEIRRVALDSLVLQMKSMSVGDPRTFPFIEPPPPASLETAILYLRDQGALDSSEALTPIGSLLAQLPVDVVIGKMLILGSMFSLVEPVLTIAAALSVQSPFTRSAQSSPECAAARRPLESDQGDPFTLFNVFNAWVQVKSERSRNSRKWCRRRGIEEHRLYEMANLRRQFKELLEDHGLLAGAQAAQVGDSYSRLQQRRERRALHQLKRQHEEGAGRRRKVLRLQEEQDGGSSDEDRAGPAPPGASDGVDIQDVKFKLRHDLAQLQAAASSAQDLSREQLALLKLVLGRGLYPQLAVPDAFNSSRKDSDQIFHTQAKQGAVLHPTCVFAGSPEVLHAQELEASNCDGSRDDKDKMSSKHQLLSFVSLLETNKPYLVNCVRIPALQSLLLFSRSLDTNGDCSRLVADGWLELQLADSESAIRLLAASLRLRARWESALDRQLAHQAQQQLEEEEEDTPVSPKEVATLSKELLQFTASKIPYSLRRLTGLEVQNMYVGPQTIPATPHLPGLFGSSTLSPHPTKGGYAVTDFLTYNCLTNDTDLYSDCLRTFWTCPHCGLHAPLTPLERIAHENTCPQAPQDGPPGAEEAALETLQKTSVLQRPYHCEACGKDFLFTPTEVLRHRKQHV
Turning to B1, the binding entry in assay [1] and in assay [2] was “binds” throughout.

The values are drawn from PMC4534575, “The RNA Helicase DHX34 Activates NMD by Promoting a Transition from the Surveillance to the Decay-Inducing Complex” (Cell Reports, 2014).
